# Measurements as given in publication PMC4336329 (PLoS ONE, 2015).
# In all, about 310,000 compounds went through this assay and about 14,000 (4.5%) showed an effect of 50% or more. The effect is printed as a negative number. The list shows a part of the results.
# Target: human ether-à-go-go-related gene (hERG) potassium channel (human, UniProt Q12809)
# Test: primary screen, population patch clamp on CHO cells stably expressing hERG
# 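Also: peak tail current of the secondary pulse compared with the same well before compound.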
# Chain of human ether-à-go-go-related gene (hERG) potassium channel (Q12809 whole entry, looked up): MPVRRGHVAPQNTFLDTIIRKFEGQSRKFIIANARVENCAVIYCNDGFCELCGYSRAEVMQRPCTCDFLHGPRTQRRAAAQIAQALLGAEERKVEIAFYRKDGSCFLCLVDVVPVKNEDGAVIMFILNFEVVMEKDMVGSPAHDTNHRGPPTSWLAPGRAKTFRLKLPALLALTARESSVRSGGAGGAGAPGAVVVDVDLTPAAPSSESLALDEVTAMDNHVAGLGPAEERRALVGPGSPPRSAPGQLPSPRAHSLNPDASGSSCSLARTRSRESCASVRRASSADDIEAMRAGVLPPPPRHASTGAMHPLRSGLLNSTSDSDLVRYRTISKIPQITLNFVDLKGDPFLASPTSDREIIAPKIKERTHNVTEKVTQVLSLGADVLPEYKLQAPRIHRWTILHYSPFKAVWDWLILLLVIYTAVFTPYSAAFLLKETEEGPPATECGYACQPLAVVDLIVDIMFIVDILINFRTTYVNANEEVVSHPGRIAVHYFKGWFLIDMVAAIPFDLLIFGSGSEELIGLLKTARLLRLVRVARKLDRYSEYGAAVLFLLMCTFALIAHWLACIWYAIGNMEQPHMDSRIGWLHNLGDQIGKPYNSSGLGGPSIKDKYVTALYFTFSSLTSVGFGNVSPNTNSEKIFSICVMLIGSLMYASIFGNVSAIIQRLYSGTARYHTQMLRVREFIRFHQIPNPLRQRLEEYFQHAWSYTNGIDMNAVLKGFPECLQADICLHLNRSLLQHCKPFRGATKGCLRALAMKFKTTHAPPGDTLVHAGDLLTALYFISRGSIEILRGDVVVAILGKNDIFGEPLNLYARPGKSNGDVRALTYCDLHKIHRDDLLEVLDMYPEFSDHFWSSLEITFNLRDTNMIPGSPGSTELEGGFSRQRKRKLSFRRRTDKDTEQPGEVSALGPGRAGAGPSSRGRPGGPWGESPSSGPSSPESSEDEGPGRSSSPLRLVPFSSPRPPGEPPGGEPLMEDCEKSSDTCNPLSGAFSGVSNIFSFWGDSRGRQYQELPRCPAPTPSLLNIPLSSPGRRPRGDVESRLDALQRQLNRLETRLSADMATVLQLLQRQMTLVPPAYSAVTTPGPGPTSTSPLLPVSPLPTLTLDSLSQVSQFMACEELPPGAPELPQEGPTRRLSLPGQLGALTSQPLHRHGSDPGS
row,SMILES,"hERG current change (%, negative = inhibition) at 10uM [%]"
1,O=C(Nc1ccccc1)Nc1ccc(C(F)(F)F)cn1,7.46
2,COc1ccc2cc(C(=O)C3CCCN(C(=O)c4cc(=O)n(C)c(=O)n4C)C3)ccc2c1 (stereo not drawn),-38.4
3,COc1ccc(C(=O)/C=C/N2CCCCC2)cc1OC,9.67
4,CSc1ccc(-c2nc(CSCC(=O)N3CCOCC3)c(C)o2)cc1,-25.2
5,Cc1cccn2c(=O)c3cc(C(=O)N(C)C)n(C)c3nc12,2.7
6,CC(C)N(C(=O)CSc1nnc(NC(=O)Cc2cccs2)s1)C(C)C,9.08
7,O=C(CSc1ccc(-c2ccccn2)nn1)NCc1ccccc1,2.53
8,O=C(c1ccc(-n2cccc2)cc1)N1CCCCC1,5.72
9,CSc1nnc(NC(=O)c2nc(S(=O)(=O)Cc3cccc(C)c3)ncc2Cl)s1,-6.39
10,Cc1cccc(NC(=O)c2ccc(S(=O)(=O)NCc3cccnc3)cc2)c1,-2.34
11,CCC(c1nnnn1Cc1ccco1)N(CCc1ccccc1)Cc1cc2cc(C)ccc2[nH]c1=O (stereo not drawn),0.239
12,CC1(C)C2CCC1(CS(=O)(=O)NCc1ccc(S(N)(=O)=O)cc1)C(=O)C2 (stereo not drawn),7.51
13,CCOC(=O)CC(NC(=O)Cc1cccs1)c1ccccc1Cl (stereo not drawn),5.29
14,CCS(=O)(=O)N1CCN(c2cnn(-c3ccccc3)c(=O)c2Cl)CC1,-29
15,COc1cccc(-n2c(CNC(=O)OC(C)(C)C)n[nH]c2=S)c1,13.7
16,O=C(O)C1C2C=CC(C2)C1C(=O)NCc1ccccn1 (stereo not drawn),-3.63
17,Cc1ccnc(SCc2nc3ccccc3s2)n1,4.27
18,c1cncc(-c2nc3ccccn3c2Nc2ccc3c(c2)OCCO3)c1,-11.4
19,O=C(Nc1ccc(C(F)(F)F)cn1)Nc1cccs1,6.66

row,SMILES,"hERG current change (%, negative = inhibition) at 10uM [%]"
1,Cc1cc(C)c2c(=O)c3c(oc2c1)C(=O)N(CCO)C3c1cccc(O)c1 (stereo not drawn),4.2
2,Cc1cc(=O)oc2cc(NC(=O)C(C)Oc3ccc(F)cc3)ccc12 (stereo not drawn),-28.1
3,CCOCCN(C(=O)c1ccccc1Cl)c1cccc(C)c1C,9.34
4,COc1ccc(C2=NOC(C(=O)N3CCN(c4ccccc4OC)CC3)C2)cc1 (stereo not drawn),11.4
5,CC1CC(=O)Nc2ccccc2N1S(=O)(=O)c1ccc(C#N)cc1 (stereo not drawn),11.4
6,CC1Oc2ccccc2N(CC(=O)Nc2ccc3c(c2)OCO3)C1=O (stereo not drawn),3.74
7,S=C(NCCN1CCOCC1)NC1CCCCC1,22.5
8,O=S(=O)(c1ccc(Cl)cc1)n1ccc2cccnc21,-4.45
9,O=C(c1cnc2n(c1=O)CCS2)N1CCc2ccccc21,9.35
10,O=C(NCC(=O)N(CC1CCCO1)C(C(=O)NC1CCCCC1)c1ccc(F)cc1)c1ccco1 (stereo not drawn),2.68
11,Cc1cccc2cc3c(NC(=O)CC(C)C)nn(C)c3nc12,10.2
12,COc1ccc(N2CCN(Cc3nc(N)nc(Nc4ccc(C)c(Cl)c4)n3)CC2)cc1,-63.1
13,O=C(CCCn1c(=S)[nH]c2cc3c(cc2c1=O)OCO3)NCCc1ccccc1Cl,5.71
14,Cc1cccc(OCC(=O)NNC(=O)c2cc(S(=O)(=O)N(C)C)ccc2N2CCCC2)c1,-37.7
15,Cc1ccc(NC(=O)CNCc2ccccc2Cl)cc1S(=O)(=O)N(C)C.O=C(O)C(=O)O,-21.1
16,O=C(O)c1ccccc1CSc1nc2ccccc2n1Cc1ccccc1C(=O)O,43.2
17,CCOC(=O)Cc1csc(NC(=O)CN(C)S(=O)(=O)c2ccc3c(c2)CCC(=O)N3)n1,-15.9
18,Cc1nn(-c2ccccc2)nc1C(=O)Nc1nnc(C(F)(F)F)s1,4.23
19,CC(CCCC(C)(C)O)CC1C2=C(CCCC2=O)OC2=C1C(=O)CCC2 (stereo not drawn),9.82

row,SMILES,"hERG current change (%, negative = inhibition) at 10uM [%]"
1,O=C(Nc1nonc1-c1ccc(Cl)cc1)c1ccco1,2.62
2,CN(C)c1ncc(CN2CCC(C(=O)Nc3ccc(-n4cccn4)cc3)CC2)s1,-10.7
3,CCNS(=O)(=O)c1ccc(CCC(=O)O)cc1,23.6
4,CCOc1ccc(C(C)=O)cc1CSc1nc(C)cc(C)n1,-6.21
5,Cc1cccc(CSCCNC(=O)CCSc2ccccc2)c1,-21.4
6,S=C(NNC(=S)NC1CC2C=CC1C2)NC1CC2C=CC1C2 (stereo not drawn),11.2
7,Cc1cc(C)c(NC(=O)CNC(=O)c2ccccc2OCc2c(C)noc2C)c(C)c1,3.48
8,Cc1ccc2cc(C3CC(c4ccco4)=NN3S(C)(=O)=O)c(Cl)nc2c1 (stereo not drawn),-15
9,CCN(CC)C(=O)/C(=C/c1ccc2c(c1)OCO2)NC(=O)c1ccc(Br)cc1,-70.5
10,Cc1c(Cl)cccc1NC(=S)N(CCCN1CCOCC1)Cc1cccs1,-26.5
11,c1ccc2cc(CCCc3cc4ccccc4cn3)ncc2c1,-22.6
12,O=C(Cn1cncn1)NCc1cccc2ccccc12,0.581
13,CN(C)S(=O)(=O)N1CCC(C(=O)O)(c2ccccc2)CC1,18.7
14,COc1ccc(/C=C2\SC(=O)N(CCNC(=O)Cn3cnnn3)C2=O)cc1,-31.7
15,O=C(CCS(=O)(=O)c1ccccc1)Nc1cccc(-c2nc3ccccc3s2)c1,5.96
16,CCOC(=O)c1c(N)n(-c2ccc(N)cc2)c2nc3ccccc3nc12,-39
17,O=C(O)C(=O)O.c1ccc(COc2ccc(OCCN3CCCCC3)cc2)cc1,-70.2
18,CCCCCOC(=O)C1=C(C)NC(=O)NC1c1ccc(OC)cc1 (stereo not drawn),5.95
19,[O-]c1n[n+](-c2ccc(Cl)cc2Cl)cc2ccccc12,-2.19
